# Laboratory results reported in the supplement of paper PMC8728848.
# This is one part of the list.
# How the values were obtained:
# Assay in all cases: glycan array binding signal (z-score within array); higher = stronger binding
# Details in all cases: glycan notation: IUPAC condensed, linker removed
# [1] = target: Gal(b1-4)GlcNAc(b1-3)Gal(b1-4)GlcNAc(b1-3)Gal(b1-4)GlcNAc(b1-3)Gal(b1-4)GlcNAc(b1-2)Man(a1-3)[Gal(b1-4)GlcNAc(b1-3)Gal(b1-4)GlcNAc(b1-3)Gal(b1-4)GlcNAc(b1-3)Gal(b1-4)GlcNAc(b1-2)Man(a1-6)]Man(b1-4)GlcNAc(b1-4)GlcNAc
# Outline: (§1)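 Glycan array data came from 3228 arrays in the Consortium for Functional Glycomics database, and only arrays with an available protein sequence were kept. Glycan names were put into IUPAC-condensed notation, and columns mapping to the same glycan were averaged. The binding signal is a within-array Z-score, averaged across arrays of one protein sequence run at different concentrations or buffers and across linkers. A negative Z-score can be read as non-binding.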
# [2] = target: Gal(b1-4)GlcNAc(b1-3)Gal(b1-4)GlcNAc(b1-3)Gal(b1-4)GlcNAc(b1-3)Gal(b1-4)GlcNAc(b1-2)Man(a1-3)[Gal(b1-4)GlcNAc(b1-3)Gal(b1-4)GlcNAc(b1-3)Gal(b1-4)GlcNAc(b1-3)Gal(b1-4)GlcNAc(b1-2)Man(a1-6)]Man(b1-4)GlcNAc(b1-4)[Fuc(a1-6)]GlcNAc
# Outline: as §1
# [3] = target: Gal(b1-4)GlcNAc(b1-3)Gal(b1-4)GlcNAc(b1-3)Gal(b1-4)GlcNAc(b1-3)Gal(b1-4)GlcNAc(b1-2)[Gal(b1-4)GlcNAc(b1-3)Gal(b1-4)GlcNAc(b1-3)Gal(b1-4)GlcNAc(b1-3)Gal(b1-4)GlcNAc(b1-6)]Man(a1-6)[Gal(b1-4)GlcNAc(b1-3)Gal(b1-4)GlcNAc(b1-3)Gal(b1-4)GlcNAc(b1-3)Gal(b1-4)GlcNAc(b1-2)Man(a1-3)]Man(b1-4)GlcNAc(b1-4)[Fuc(a1-6)]GlcNAc
# Outline: as §1
# [4] = target: Gal(b1-4)GlcNAc(b1-3)Gal(b1-4)GlcNAc(b1-3)Gal(b1-4)GlcNAc(b1-3)Gal(b1-4)GlcNAc(b1-3)Gal(b1-4)GlcNAc(b1-2)Man(a1-3)[Gal(b1-4)GlcNAc(b1-3)Gal(b1-4)GlcNAc(b1-3)Gal(b1-4)GlcNAc(b1-3)Gal(b1-4)GlcNAc(b1-3)Gal(b1-4)GlcNAc(b1-2)Man(a1-6)]Man(b1-4)GlcNAc(b1-4)GlcNAc
# Outline: as §1
# [5] = target: Gal(b1-4)GlcNAc(b1-3)Gal(b1-4)GlcNAc(b1-3)Gal(b1-4)GlcNAc(b1-3)Gal(b1-4)GlcNAc(b1-3)Gal(b1-4)GlcNAc(b1-2)Man(a1-3)[Gal(b1-4)GlcNAc(b1-3)Gal(b1-4)GlcNAc(b1-3)Gal(b1-4)GlcNAc(b1-3)Gal(b1-4)GlcNAc(b1-3)Gal(b1-4)GlcNAc(b1-2)Man(a1-6)]Man(b1-4)GlcNAc(b1-4)[Fuc(a1-6)]GlcNAc
# Outline: as §1
# [6] = target: Gal(b1-4)GlcNAc(b1-3)Gal(b1-4)GlcNAc(b1-3)Gal(b1-4)GlcNAc(b1-3)Gal(b1-4)GlcNAc(b1-3)Gal(b1-4)GlcNAc(b1-2)[Gal(b1-4)GlcNAc(b1-3)Gal(b1-4)GlcNAc(b1-3)Gal(b1-4)GlcNAc(b1-3)Gal(b1-4)GlcNAc(b1-3)Gal(b1-4)GlcNAc(b1-6)]Man(a1-6)[Gal(b1-4)GlcNAc(b1-3)Gal(b1-4)GlcNAc(b1-3)Gal(b1-4)GlcNAc(b1-3)Gal(b1-4)GlcNAc(b1-3)Gal(b1-4)GlcNAc(b1-2)Man(a1-3)]Man(b1-4)GlcNAc(b1-4)[Fuc(a1-6)]GlcNAc
# Outline: as §1
# [7] = target: Gal(b1-4)GlcNAc(b1-3)Gal(b1-4)GlcNAc(b1-3)Gal(b1-4)GlcNAc(b1-3)Gal(b1-4)GlcNAc(b1-3)Gal(b1-4)GlcNAc(b1-3)Gal(b1-4)GlcNAc(b1-2)Man(a1-3)[Gal(b1-4)GlcNAc(b1-3)Gal(b1-4)GlcNAc(b1-3)Gal(b1-4)GlcNAc(b1-3)Gal(b1-4)GlcNAc(b1-3)Gal(b1-4)GlcNAc(b1-3)Gal(b1-4)GlcNAc(b1-2)Man(a1-6)]Man(b1-4)GlcNAc(b1-4)GlcNAc
# Outline: as §1
# [8] = target: Gal(b1-4)GlcNAc(b1-3)Gal(b1-4)GlcNAc(b1-3)GalNAc
# Outline: as §1
# [9] = target: Gal(b1-4)GlcNAc(b1-3)Gal(b1-4)GlcNAc(b1-3)[Gal(b1-4)GlcNAc(b1-3)Gal(b1-4)GlcNAc(b1-6)]GalNAc
# Outline: as §1
# [10] = target: Gal(b1-4)GlcNAc(b1-3)Gal(b1-4)GlcNAc(b1-6)[Gal(b1-3)]GalNAc
# Outline: as §1
# [11] = target: Gal(b1-4)GlcNAc(b1-3)Gal(b1-4)[Fuc(a1-3)]GlcNAc(b1-3)Gal(b1-4)[Fuc(a1-3)]GlcNAc
# Outline: as §1
# [12] = target: Gal(b1-4)GlcNAc(b1-3)GalNAc
# Outline: as §1
# [13] = target: Gal(b1-4)GlcNAc(b1-3)[Fuc(a1-3)GlcNAc(b1-6)]Gal(b1-4)Glc
# Outline: as §1
# [14] = target: Gal(b1-4)GlcNAc(b1-3)[Gal(b1-4)GlcNAc(b1-6)]Gal(b1-4)GlcNAc
# Outline: as §1
# [15] = target: Gal(b1-4)GlcNAc(b1-3)[GlcNAc(b1-6)]Gal(b1-4)GlcNAc
# Outline: as §1
# [16] = target: Gal(b1-4)GlcNAc(b1-6)Gal(b1-4)GlcNAc
# Outline: as §1
# [17] = target: Gal(b1-4)GlcNAc(b1-6)GalNAc
# Outline: as §1
# [18] = target: Gal(b1-4)GlcNAc(b1-6)[Gal(b1-3)]GalNAc
# Outline: as §1
# [19] = target: Gal(b1-4)GlcNAc(b1-6)[Gal(b1-4)GlcNAc(b1-3)]GalNAc
# Outline: as §1
binder,measurement,setting,value
"DC-Sign (Homo sapiens), Q9NNX6 (protein) MSDSKEPRLQQLGLLEEEQLRGLGFRQTRGYKSLAGCLGHGPLVLQLLSFTLLAGLLVQVSKVPSSISQEQSRQDAIYQNLTQLKAAVGELSEKSKLQEIYQELTQLKAAVGELPEKSKLQEIYQELTRLKAAVGELPEKSKLQEIYQELTWLKAAVGELPEKSKMQEIYQELTRLKAAVGELPEKSKQQEIYQELTRLKAAVGELPEKSKQQEIYQELTRLKAAVGELPEKSKQQEIYQELTQLKAAVERLCHPCPWEWTFFQGNCYFMSNSQRNWHDSITACKEVGAQLVVIKSAEEQNFLQLQSSRSNRFTWMGLSDLNQEGTWQWVDGSPLLPSFKQYWNRGEPNNVGEEDCAEFSGNGWNDDKCNLAKFWICKKSAASCSRDEEQFLSPAPATPNPPPA",glycan array binding signal (z-score),[1],-0.128
same,glycan array binding signal (z-score),[2],-0.134
same,glycan array binding signal (z-score),[3],-0.129
same,glycan array binding signal (z-score),[4],-0.114
same,glycan array binding signal (z-score),[5],-0.077
same,glycan array binding signal (z-score),[6],0.536
same,glycan array binding signal (z-score),[7],0.26
same,glycan array binding signal (z-score),[8],-0.098
same,glycan array binding signal (z-score),[9],-0.146
same,glycan array binding signal (z-score),[10],-0.097
same,glycan array binding signal (z-score),[11],-0.164
same,glycan array binding signal (z-score),[12],-0.166
same,glycan array binding signal (z-score),[13],-0.038
same,glycan array binding signal (z-score),[14],-0.106
same,glycan array binding signal (z-score),[15],-0.185
same,glycan array binding signal (z-score),[16],-0.179
same,glycan array binding signal (z-score),[17],-0.146
same,glycan array binding signal (z-score),[18],-0.171
same,glycan array binding signal (z-score),[19],-0.157
